Results reported in article PMC4336329 (PLoS ONE, 2015).
About 14,000 (4.5%) of roughly 310,000 compounds showed an effect of 50% or more. The effect is printed as a negative number. The list shows a part of the results.

molecular target: human ether-à-go-go-related gene (hERG) potassium channel (human, UniProt Q12809); assay: primary screen, population patch clamp on CHO cells stably expressing hERG
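Note: peak tail current of the secondary pulse compared with the same well before compound.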

Sequence of human ether-à-go-go-related gene (hERG) potassium channel (Q12809 whole entry, looked up): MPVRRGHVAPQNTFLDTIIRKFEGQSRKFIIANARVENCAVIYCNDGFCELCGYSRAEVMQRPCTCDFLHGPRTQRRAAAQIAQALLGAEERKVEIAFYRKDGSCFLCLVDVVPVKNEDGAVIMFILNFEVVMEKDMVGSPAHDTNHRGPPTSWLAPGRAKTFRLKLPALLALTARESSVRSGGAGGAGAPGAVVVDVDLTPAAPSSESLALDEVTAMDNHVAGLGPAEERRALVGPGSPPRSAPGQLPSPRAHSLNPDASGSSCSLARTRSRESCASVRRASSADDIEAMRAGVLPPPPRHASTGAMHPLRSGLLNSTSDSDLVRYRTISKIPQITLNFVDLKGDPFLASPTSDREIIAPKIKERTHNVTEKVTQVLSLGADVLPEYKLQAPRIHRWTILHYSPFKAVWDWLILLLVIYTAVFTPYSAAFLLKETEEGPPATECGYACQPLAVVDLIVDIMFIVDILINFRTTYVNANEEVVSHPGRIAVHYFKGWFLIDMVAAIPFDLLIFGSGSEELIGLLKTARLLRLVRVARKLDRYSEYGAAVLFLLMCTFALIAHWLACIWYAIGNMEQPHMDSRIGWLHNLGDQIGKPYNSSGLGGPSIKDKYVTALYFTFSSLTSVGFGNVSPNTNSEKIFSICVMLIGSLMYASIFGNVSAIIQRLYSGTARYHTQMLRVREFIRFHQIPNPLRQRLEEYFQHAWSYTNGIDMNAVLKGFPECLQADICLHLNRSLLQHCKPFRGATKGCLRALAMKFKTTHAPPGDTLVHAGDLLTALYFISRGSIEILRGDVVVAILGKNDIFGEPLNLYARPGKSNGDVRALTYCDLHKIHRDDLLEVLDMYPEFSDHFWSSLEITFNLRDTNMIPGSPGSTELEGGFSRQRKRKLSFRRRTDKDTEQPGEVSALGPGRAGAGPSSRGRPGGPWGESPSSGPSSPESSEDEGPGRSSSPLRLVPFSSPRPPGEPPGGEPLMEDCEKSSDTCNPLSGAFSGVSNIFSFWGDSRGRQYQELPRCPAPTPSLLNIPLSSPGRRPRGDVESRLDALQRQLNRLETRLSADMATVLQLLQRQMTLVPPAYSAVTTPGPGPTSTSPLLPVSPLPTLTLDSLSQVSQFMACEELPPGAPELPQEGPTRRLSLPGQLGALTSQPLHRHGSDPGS

| Compound | hERG current change (%, negative = inhibition) at 10uM [%] |
| --- | --- |
| O=C(c1cccc(C(F)(F)F)c1)C1CCCN(C(=O)CCCN2CCCC2=O)C1 (stereo not drawn) | -4.27 |
| CS(=O)(=O)N(Cc1ccccc1)c1ccc(C(=O)Nc2ccccc2C(=O)O)cc1 | 21.2 |
| CC(=O)NC(CCS(C)(=O)=O)C(=O)Nc1ccccc1C (stereo not drawn) | 4.17 |
| CCOc1c(Br)ccc2c1sc1nc[nH]c(=O)c12 | -12.2 |
| Cc1ccc(CNC(=O)CCSCc2ccc(C)cc2)cc1 | -2.27 |
| O=C(c1ccoc1)N1CCC2(CC1)Oc1ccc(F)cc1C(=O)C21CC(c2ccc(Cl)cc2)=NO1 (stereo not drawn) | 18.5 |
| O=C(Nn1c(Cc2ccccc2)nc2ccccc2c1=O)c1c(O)c2cccc3c2n(c1=O)CCC3 | 23.9 |
| CCOC(=O)c1ccc(NC(=S)Nc2ccccc2N)cc1 | 12 |
| CCN(C(=O)/C=C/c1ccc(OC)cc1)C1CCS(=O)(=O)C1 (stereo not drawn) | -22.6 |
| O=C(CCN1C(=O)c2ccccc2C1=O)N1CCOCC1 | 3.02 |
| COC(=O)CCC(=O)Nc1c(C)n(C)n(-c2ccccc2)c1=O | 10.2 |
| O=c1c2ccccc2nc(N/N=C/c2c(O)ccc3ccccc23)n1O | 0.819 |
| Cc1occc1-c1nnc(SCC(=O)NC(C)(C)C)n1C(C)c1ccccc1 (stereo not drawn) | -11.8 |
| Cc1ccc(-c2cc(-c3ccc(C)cc3O)[nH]n2)cc1 | 11.3 |
| COc1cc(CNCc2ccccn2)ccc1OCC(N)=O.Cl | -0.0507 |
| Cc1nc2cc(NC(=O)COc3ccccc3C#N)ccc2n1-c1ccccc1 | -4.85 |
| CCOC(=O)C1=C(N)Oc2cc(C)oc(=O)c2C12C(=O)N1c3c(cc(OC)cc32)C(C)=CC1(C)C (stereo not drawn) | -1.93 |
| Cc1nnc(SCCCCSc2nnc(C)c(=O)[nH]2)[nH]c1=O | 10.5 |
| COc1cccc(CC(=O)Nc2nc(-c3ccc(F)c(F)c3)cs2)c1 | 12.7 |
| N#Cc1c(-c2ccc3c(c2)OCO3)cc[nH]c1=O | 18.8 |
| CCc1ccccc1NC(=O)C1CCCN(c2ncnc3onc(-c4ccc(F)cc4)c23)C1 (stereo not drawn) | 11.2 |
| CC(C)Cn1c(SCC(=O)N2CCN(C(=O)c3ccco3)CC2)nc2ccccc2c1=O | -73.2 |
| O=C1NC(=Nc2ccccc2Cl)S/C1=C\c1cccc([N+](=O)[O-])c1O | 13.6 |
| O=C(CN1CCN(S(=O)(=O)c2ccccc2)CC1)Nc1ccccc1C(=O)c1ccccc1 | -19.4 |
